# PubChem BioAssay AID488969 (Vanderbilt High Throughput Screening Facility, 2010)
# The full ranking holds about 110,000 compounds; the median of “z-score” is about -0.1, and the highest 2% start at about 2. The list shows a part of the results. Active and inactive are the calls of the source.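 Rule for the calls: active = z-score in the third read window above 3 or below -3; inactive = the rest.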
# Molecular target: Metabotropic glutamate receptor 8 (Rattus norvegicus) (UniProt P70579)
# Experiment: mGluR8 Gi/Go-coupled signaling modulation – cell-based, rat, thallium flux, HTS, primary screen (AID 488969)
# Settings: HEK293 rat mGluR8, GIRK (G protein-gated inwardly rectifying potassium channel) thallium flux, FluoZin2; at 10 µM; stronger effect = higher value; submaximal glutamate (EC20) added with thallium
# Chain of UniProt P70579 (P70579 whole entry, looked up): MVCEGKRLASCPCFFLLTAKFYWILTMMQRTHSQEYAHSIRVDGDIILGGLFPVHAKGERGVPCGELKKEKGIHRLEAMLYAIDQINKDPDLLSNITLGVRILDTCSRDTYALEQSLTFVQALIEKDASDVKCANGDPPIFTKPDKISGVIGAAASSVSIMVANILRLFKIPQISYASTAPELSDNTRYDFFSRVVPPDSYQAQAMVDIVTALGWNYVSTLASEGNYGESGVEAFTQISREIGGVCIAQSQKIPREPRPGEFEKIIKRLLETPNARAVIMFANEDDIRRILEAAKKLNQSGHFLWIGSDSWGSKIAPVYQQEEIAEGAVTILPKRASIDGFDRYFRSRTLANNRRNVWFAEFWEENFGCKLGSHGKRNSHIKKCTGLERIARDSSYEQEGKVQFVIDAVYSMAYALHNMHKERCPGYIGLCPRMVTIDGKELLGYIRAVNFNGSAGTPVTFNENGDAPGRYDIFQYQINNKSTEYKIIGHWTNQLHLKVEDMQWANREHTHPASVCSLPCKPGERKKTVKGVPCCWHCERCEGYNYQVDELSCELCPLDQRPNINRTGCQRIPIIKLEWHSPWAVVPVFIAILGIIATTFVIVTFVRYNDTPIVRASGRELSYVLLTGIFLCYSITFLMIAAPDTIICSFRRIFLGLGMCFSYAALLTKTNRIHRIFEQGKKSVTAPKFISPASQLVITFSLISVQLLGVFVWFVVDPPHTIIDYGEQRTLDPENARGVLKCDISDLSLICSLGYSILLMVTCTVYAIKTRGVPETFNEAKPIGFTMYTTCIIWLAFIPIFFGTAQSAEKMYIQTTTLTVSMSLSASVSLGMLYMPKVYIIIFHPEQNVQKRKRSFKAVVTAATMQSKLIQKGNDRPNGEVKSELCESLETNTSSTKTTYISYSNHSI
row,Compound,z-score
1,Cc1cc(NC(=O)CCCN2C(=O)/C(=C/c3cccs3)SC2=S)no1,0.155
2,O=C(CN1C2=NCCCN2c2ccccc21)c1ccc(Cl)cc1Cl,0.287
3,O=C(CSc1nnc(-c2cccs2)o1)N1CCCCC1,0.00857
4,O=C(NCc1ccco1)c1ccc(Cn2c(=O)c3ccccc3n(Cc3ccc(Cl)cc3)c2=O)cc1,-0.135
5,CCOC(=O)/C(C#N)=C1/C=CN(c2ccc(C)cc2)C=N1,-0.217
6,COc1cccc(OCC(=O)O/N=C(\N)c2ccc(OC)c(OC)c2)c1,-0.659
7,CC(CC(=O)NC(C)c1ccc2c(c1)OCCO2)c1ccccc1 (stereo unspecified),-0.322
8,O=C(CSc1nnc(-c2cccnc2)n1Cc1ccco1)c1ccc(Cl)c(Cl)c1,-1.8
9,CCOc1ccc(NC(=O)CSCc2cnn(-c3ccccc3)c2-n2cccc2)cc1,-0.0203
10,CCN(CC)CCN1CCn2c3c(c4cc(C)ccc42)CCCC31 (stereo unspecified),1.08
11,Cn1c(=O)c2c(ncn2CC(O)CNc2ccc(Br)cc2)n(C)c1=O (stereo unspecified),-0.214
12,COc1ccc(CC2C(=O)OC(C)(C)OC2=O)cc1,1.11
13,O=C(CCCC(=O)N1CCN(c2ccc([N+](=O)[O-])cc2)CC1)c1ccccc1,-0.912
14,CCSc1sccc1C1C(C#N)=C(N)N(c2cccnc2)C2=C1C(=O)CCC2 (stereo unspecified),-0.331
15,COc1ccc(Cn2nnnc2C(c2cccnc2)N2CCN(c3ccc(O)cc3)CC2)cc1 (stereo unspecified),0.179
16,C/C(=N/N=C1/NC(=O)CC(C(=O)O)S1)c1ccccc1 (stereo unspecified),0.153
17,CNc1nc(-c2ccccn2)nnc1-c1ccccc1,0.56
18,COCCn1c(C2CCCCC2)nc2sc3ccccc3c(=O)c2c1=O,0.498
19,N#C/C(=C\c1cccs1)C(=O)NCc1ccco1,-0.284
20,Cc1cccc(C(=O)Nc2ccc(C(=O)/C=C/c3cccs3)cc2)c1,-0.291
21,O=C(N/N=C/C1=C(N2CCOCC2)C(=C\c2ccccc2)/CC1)Nc1ccccc1,-0.122
22,CC(C)C(NC(=O)c1ccco1)C(=O)NCC(c1ccco1)N(C)C (stereo unspecified),-0.23
23,CS(=O)(=O)N1CCC(C(=O)Nc2c(F)cccc2F)CC1,0.93
24,Cc1cc2n(n1)SC(Nc1cc(Cl)ccc1Cl)N2 (stereo unspecified),-0.803

row,Compound,z-score
1,C=CCn1c(CCCNC(=O)CCC)nc2ccccc21,-0.191
2,O=C(O)C1CCCCC1C(=O)Nc1ccccc1C(=O)N1CCN(c2ccc(F)cc2)CC1 (stereo unspecified),-0.207
3,CCCCCN1CC(O)=C(c2ccccc2)C1=N,0.125
4,Cc1c(C#N)c2ccccc2n1CC(=O)NCC1CCCO1 (stereo unspecified),0.569
5,CCOc1ccccc1OCCCC(=O)NC1CCCc2ccccc21 (stereo unspecified),-0.245
6,N#Cc1sc2nc(C3CC3)cc(-c3ccccc3)c2c1N,-0.157
7,C=CCNc1nnc(C)c2ccccc12,0.0217
8,O=C(C1CC(c2ccc(F)cc2)=NO1)N1CCN(c2ccccc2)CC1 (stereo unspecified),-0.045
9,O=C(Nc1ccc(F)c(F)c1)NC1CCCCC1,active: 3.01
10,CN1c2ccccc2N(C)C1(C)c1ccccc1,-0.164
11,O=[N+]([O-])c1ccc(N2CCCC2)cc1NC1CC1,-0.752
12,Nc1ccc2c(c1)ncn2CCCn1cnc2cc(N)ccc21,-0.064
13,Cc1ccccc1CNC(=O)c1ccccc1N,0.364
14,O=C(CNC(=S)N(CCCN1CCOCC1)Cc1cccs1)NC1CC1,0.603
15,O=C(CSc1nnc(CNC(=O)c2c(F)cccc2Cl)o1)NCc1ccc2c(c1)OCO2,-0.485
16,CCn1c(SCC(=O)N2CCN(c3cccc(Cl)c3)CC2)nc2ccccc2c1=O,-1.27
17,COc1ccc(-n2c(CCc3ccccc3)nnc2SCC(=O)c2ccc(Cl)cc2)cc1,-0.265
18,CCCOc1ccccc1C1NC(=O)NC(C)=C1C(=O)OCCOC(C)C (stereo unspecified),-0.228
19,CCOc1ccc(S(=O)(=O)N/N=C2/CCCC(=O)C2)cc1,-0.192
20,C/C(CC(=O)NCc1ccco1)=N\NC(=O)COc1ccc(C)cc1,-0.096
21,Cc1ccc(CNC(=O)c2ccc(N3CCCC3=O)cc2)cc1,-0.00989
22,N#Cc1ccc(NC(=O)COC(=O)CCc2ccc(S(=O)(=O)N3CCCCC3)cc2)cc1,0.758
23,Cc1ccc(C2=Nc3ccccc3NC(C)(c3ccc(C)o3)C2)o1 (stereo unspecified),-0.367
24,CCCN1CCc2[nH]c(=S)[nH]c(=O)c2C1,-0.17

row,Compound,z-score
1,CC(C)CC(=O)NC(NC(=S)Nc1cccc2cccnc12)C(Cl)(Cl)Cl (stereo unspecified),0.0214
2,O=C(O)CCC(=O)NNC(=O)c1cccc(Cl)c1,-0.0693
3,COc1ccccc1NC(=O)N(Cc1ccco1)Cc1cc2ccc(C)c(C)c2[nH]c1=O,-1.77
4,CCSCCOC(=O)C1=C(C)NC(=O)NC1c1ccc2c(c1)OCO2 (stereo unspecified),-0.281
5,COc1ccccc1NC(=O)c1ccc(NC(=O)COC(=O)C2CC2C)cc1 (stereo unspecified),-0.322
6,CNC(=O)N(O)C1N(NC(=O)Nc2ccccc2)C(=S)SC1(C)C (stereo unspecified),-0.139
7,CC1(c2ccccc2)CC(C)(C)N(C(=O)c2cc([N+](=O)[O-])cc([N+](=O)[O-])c2)c2ccccc21 (stereo unspecified),-0.215
8,CCNC(=O)CCSc1nc2cc(Cl)ccc2o1,0.975
9,Cc1ccccc1CN1CCN(C(=O)c2cccc(F)c2)CC1,0.283
10,COc1ccc2cc3c(N)nn(C(=O)c4ccc(Cl)c([N+](=O)[O-])c4)c3nc2c1,0.25
11,CC12CN(C(=O)c3ccc(Cl)cc3)C3(C#N)CC1CCC23C (stereo unspecified),-0.436
12,O=C1OC(c2ccccc2)=N/C1=C/c1cccc(OC(=O)c2cccs2)c1,-0.225
13,COc1ccc(Cc2nc3ccc(S(=O)(=O)N4CCOCC4)cc3[nH]2)cc1OC,-1.43
14,CCOc1ccc(N2C(=O)CC(SC(=NC)Nc3cccc(F)c3)C2=O)cc1 (stereo unspecified),-0.588
15,COc1ccc(N2CCN(CCNC(=O)Nc3ccc(Cl)cc3)CC2)cc1,0.451
16,CC(=O)Nc1ccc2[nH]c(C)cc(=O)c2c1,-0.295
17,CC(C)(C)C1CCC(OC(=O)CCC(=O)Nc2ccccc2)CC1 (stereo unspecified),0.804
18,CCOc1ccc(C(=O)Nc2ccc(NC(=S)NC(=O)CC)cc2)cc1Cl,-0.266
19,CCOC(=O)c1cc(C)n(-n2cnnc2)c1C,0.148
20,COc1cc(/C=N/OCC(=O)Nc2cc(C)on2)ccc1OCc1ccccc1,-0.018
21,COc1cccc2c1C(=O)O/C2=C/c1ccc2c(c1)OCO2,-0.319
22,CCn1cc(C(=O)NCCCOC)c(=O)c2cc(S(=O)(=O)N(C)C3CCCCC3)ccc21,-0.838
23,O=C(CSc1nnc(Cc2ccccc2)o1)NCCc1ccccc1,-0.513
